The RNAGym collection of RNA variant scans (doi:10.1093/nar/gkz1192)
Read counts are not given, so values of variants with three or more changes are uncertain.

B1: CPEB3 Ribozyme (parent)
chain: UAACAGGGGGCCACAGCAGAAGCGUUCACGUCGCAGCCCCUGUCAGAUUCUGGUGAAUCUGCGAAUUCUGCUGUAUAUCUC

Variants of: B1
Assay: self-cleavage, relative activity (ratio to wild type); higher = more cleavage; in vitro, sequencing
Method in brief: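 CPEB3 self-cleaving ribozyme mutant libraries were made by rounds of error-prone PCR, barcoded, and transcribed in vitro with T7 RNA polymerase for 5 hours at 37°C. Cleavage occurred during transcription and a 15 min DNase I step before EDTA stop. RNAs were reverse transcribed with template switching and Illumina-sequenced, with DNA sequencing mapping barcodes to variants. Relative activity is the variant's cleaved/total read fraction divided by wild type's (minimum 5 reads), averaged across three batches.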

Variant | self-cleavage
A3G A13G G30C | 0.1
A2U A15U U69A | 0.28
A2G G7U G19A C23U A56U | 0.04
A3G A13U A20G A35U U48C A57U U76A | 0.29
A2U A5G A18G U25C C40U U51A U60C | 0.5
A3G A13U A35U C44U U69C | 0.15
A3C A64U U69A G73A | 0.26
A2U A3G U26C C50A A56U C68A U69G | 0.19
A2G U26C A64G U67C | 0.08
A2G G52A A77U | 0.77
A2U A13U U43A A45U U48C U51C U60A | 0.31
A2U A56G U58C | 0.37
A2U A13U A20G A45G A47U U48C | 0.03
A3G A13U U51A U58C U72C | 0.59
A3G A5G A35G U43C | 1.02
A3G A5U A56G A57G U67A C81A | 0.2
A2G U43C G61A U72A | 0.14
A2U U41C U54G A56G U72C U74C A77U | 0.33
A2G U26A U54C | 0.71
A2G U31A U72A | 0.35
A3G A18G G33A U51C A56G U69C | 0.13
A2G G30A A35G U69A | 0.19
A2G G6A G24A | 0.27
A2U A15G A21G | 0.32

Variant | self-cleavage
A3G A21G G46A | 0.33
A2G G8A U31C A45G U51C U67A | 0.19
A3G A13U U43A U72A A77G | 1.05
A2G G16A C40G U69A U76C | 0.08
A2U A21G U31C A56G U74C | 0.13
A2U A28G C39G A56G | 0.27
A2U U25C U31C | 0.4
A3G A13C U67C | 0.28
A3G A5U A28G U49C | 0.6
A2U A21G A35G G36C C37G G53U | 0.27
A2G G33A A35G | 0.07
A3G A18G A21G U72A | 0.23
A3G A13G U26A U41C U60C A65G | 0.12
A2U U26A G30A | 0.16
A2U A5U A21G G33C | 0.28
A3G A20U U54G U80A | 0.51
A2G U51C U54A U58A | 0.36
A3G A13U A18U A64U | 0.26
A3G A18G A45U | 0.36
A3G A13G U31A C40A G52A U74C A75G | 0.07
A2G U25C U31C U72C | 0.3
A3G A13G U58C U60A U66C | 0.27
A3G A13U U54A | 1.08
A3G A15U U26A U31A U60G U80C | 0.1

Variant | self-cleavage
A3G A18G U76G C81U | 0.96
A2U G8A A64G U69A | 0.13
A3G A21G A57G A77U | 0.27
A3G A20G U41C U43C U69A | 0.28
A3G A18U U31C U41C | 0.26
A2U G7A A21C A56G G61A | 0.06
A3G A18U C29A U60C U80C | 0.41
A3C A20G A35U A47U U51C U58C U74C | 0.13
A3G A18G C29A G33A A65G U78C | 0.17
A3G A20G U48C | 0.56
A2G G6U A15G | 0.63
A3G A5G A15U U25C | 0.69
A3G A18G A47G U69C | 1.12
A3G A18G U41C U49C A57G U78C | 0.2
A2G U26C U72A | 0.14
A2U A15G U26C U76C | 0.36
A2U A20G U25G C59U | 0.25
A3G A5G G16A C40A U48C A56U | 0.17
A2U U41C U51A | 1.11
A2U U26C C34U | 0.23
A2U C11U U43A A45G | 0.37
A3G A20G U31C C32U U58A A77G | 0.29
A3G A13G C62U U66C U80C | 0.36
A2G G33A U43C | 0.47

Variant | self-cleavage
A2U C4U A18U C34U | 0.3
A3G A18G A28C A35U U48A | 0.06
A2G G6C C12U C71G C81U | 0.12
A3G A5G A21G U25A U54A U58C U66C | 0.08
A3G A20G U31C U58A U72C | 0.37
A3C U41C U54C A57G U80A | 0.9
A3G A5U A18G U26A U48A | 0.54
A2U U25C U58C U66C | 0.08
A3G A13G C34U A35G A75G | 0.73
A2U G6A G33U | 0.2
A3G A15C A64G | 0.65
A3G A5U A18G C29A | 0.15
A2G U67C U69C U78A | 0.24
A3G A15G U43C A47G U69C | 0.39
A3G A21C A45G U54C U72A | 0.41
A2G G10A A15C U25C A35G U43C | 0.33
A2G U26C G30A A57G | 0.31
A2G G10U U25C U58C U80C | 0.07
A3G A13G A28U U78C | 0.43
A2G G55A U58G | 0.1
A2U C34G U72A U80C | 0.07
A2U A15U A45C | 0.29
A3G A13U A15G | 0.72
A3G A18G G42A U78C | 0.14

Variant | self-cleavage
A3G A21G G33A U43C A64U U80C | 0.08
A2G G7A U41C U48C | 0.09
A2G U25C A28U U31C U51A U54A C62U | 0.18
A2U C12U C23A A45G U54A A77U | 0.23
A3G A5U A45C U48C U58C A64G U69C | 0.42
A2U A3G A13G U54G | 0.62
A2G G33A U43C A47G | 0.09
A3G A15C A20G A35U U48C U67C U74C | 0.37
A3C A5G A15G U25A U51C U78C U80G | 0.05
A2U A18U A21G A65G | 0.23
A3G A18G G73A U80A | 1.12
A3C C29U U67A | 0.42
A3G A5G A45G U49A C79U | 0.49
A3G A18G A20G U26A U48C U80C | 0.06
A2G G22A C32U A45G A64G U72C U80C | 0.16
A2G G30C A57G | 0.11
A2U G7U G10A C17U G36U U72C | 0.15
A3G A15G C32U A56G | 0.59
A2U U41C A64G C68A G70A | 0.16
A2U A18U U41A G53A U54C | 0.57
A2U G6A C32A U54C A64U | 0.08
A3G A13U U43C A65G U72C U78A | 0.52
A2U A5U A15U A18G | 0.32
A3G A5G A28G C62A U66C | 0.37

Variant | self-cleavage
A2U A15G U41A A64G | 0.2
A2G G9A U58C A65U U72A U78C | 0.12
A3G A15G G61A A65G U78C | 0.27
A2G U26C U74C U80C | 0.88
A2G G10A A18G U43G | 0.25
A3G A20U A35U C50A U72C | 0.24
A2G G7A A28U A47G U69A C79U | 0.06
A2U A18U A45G U72A | 0.17
A2U G6U U25C U60C | 0.06
A3C G6U G10A C23U C29A U41A | 0.06
A3C A5C U41C U58A U69C A75G | 0.29
A3G A5U G9A A28G U43C | 0.11
A3G A5G A20G A45G U72C | 1.03
A2U U26C A57G U66C | 0.18
A2U U51C U54C A64G | 0.42
A2G U41C U72G U76A | 0.28
A3G A5G A15U U25C U31A U74A | 0.61
A3G A13U A47U C50A | 0.37
A2G G9A A21U U41C U78C | 0.08
A2G U43A G52A A64G C71U | 0.19
A2G U48C U66C U72C | 0.08
A3C A15C A35G A45U C59A | 0.32
A3C A21U U26C U43A U58C | 0.3
A3G A20G A28G C40A A45U | 0.09

Variant | self-cleavage
A2G U25C U41C U54A U78C | 0.4
A3G A5G A18G A28G U49C U72G | 0.39
A3G A20G A28U A47U U51C U54C | 0.15
A2G C34G U58A | 0.2
A3C G8A U67G U80C | 0.04
A3G A13U A15G U31C | 0.17
A3G A20G A35G U54A U60C A75G C79U | 0.8
A2G G19A U26C G42A | 0.25
A2U U51C G55C G70C | 0.2
A2U A3G G8A U67C | 0.06
A2G G8U U54G | 0.19
A2U G8U U54C C62A | 0.05
A3G A5G A18G U58C U69C | 0.13
A3C U26G U41G A56G A65U U78C | 0.04
A3G A5U A21G G33C G53A | 0.15
A2U A15G A45U A56G U72G | 0.23
A2G G6A C17U A21G U25C A47G U67G | 0.17
A2G U72C A77G | 0.63
A2U U43A U54G A57G | 0.56
A2U G22A A35G | 0.54
A3G A18G C23A | 0.1
A2G G33A U41A C71U U74A | 0.08
A2U A13G A15U A20G U41A | 0.06
